Over roughly 110,000 compounds, “z-score” has its median near -0.1; the highest 2% begin near 2. The list shows a part of the results. The source made the active and inactive calls.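 The calls were made as follows: active = z-score in the third read window above 3 or below -3; inactive = the rest.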
Target: Metabotropic glutamate receptor 8 (Rattus norvegicus) (UniProt P70579)
Assay: mGluR8 Gi/Go-coupled signaling modulation – cell-based, rat, thallium flux, HTS, primary screen (AID 488969)
Settings: HEK293 rat mGluR8, GIRK (G protein-gated inwardly rectifying potassium channel) thallium flux, FluoZin2; at 10 µM; stronger effect = higher value; submaximal glutamate (EC20) added with thallium

Chain of UniProt P70579 (P70579 whole entry, looked up): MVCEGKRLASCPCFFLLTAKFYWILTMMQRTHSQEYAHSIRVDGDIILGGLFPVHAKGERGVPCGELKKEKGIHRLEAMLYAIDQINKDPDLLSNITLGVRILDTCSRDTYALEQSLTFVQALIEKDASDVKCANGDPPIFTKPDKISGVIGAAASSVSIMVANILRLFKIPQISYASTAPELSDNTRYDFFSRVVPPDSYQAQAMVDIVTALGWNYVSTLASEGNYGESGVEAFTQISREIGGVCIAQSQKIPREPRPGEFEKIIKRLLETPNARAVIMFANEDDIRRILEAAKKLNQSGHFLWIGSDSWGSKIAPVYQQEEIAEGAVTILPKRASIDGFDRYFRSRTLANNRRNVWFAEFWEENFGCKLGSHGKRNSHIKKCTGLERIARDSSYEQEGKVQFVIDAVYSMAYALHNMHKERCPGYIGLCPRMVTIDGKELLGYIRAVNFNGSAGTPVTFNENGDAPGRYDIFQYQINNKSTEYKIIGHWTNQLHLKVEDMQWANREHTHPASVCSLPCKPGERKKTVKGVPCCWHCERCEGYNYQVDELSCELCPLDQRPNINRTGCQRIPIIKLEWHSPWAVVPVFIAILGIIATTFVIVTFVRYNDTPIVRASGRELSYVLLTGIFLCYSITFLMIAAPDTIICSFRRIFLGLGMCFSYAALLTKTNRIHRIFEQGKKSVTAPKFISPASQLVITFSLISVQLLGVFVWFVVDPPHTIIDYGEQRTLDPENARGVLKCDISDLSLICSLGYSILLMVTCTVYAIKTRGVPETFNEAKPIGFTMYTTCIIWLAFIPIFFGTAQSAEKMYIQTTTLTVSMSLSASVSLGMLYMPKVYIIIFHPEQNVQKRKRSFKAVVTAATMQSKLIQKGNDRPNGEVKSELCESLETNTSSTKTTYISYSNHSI

SMILES | z-score
Cc1ccc([N+](=O)[O-])cc1N=C(c1cccc([N+](=O)[O-])c1)N1CCOCC1 | -0.0936
O=C(CN1CCN(c2ccccn2)CC1)Nc1cc(C(F)(F)F)ccc1Cl | -1.18
CC(=O)NC(Cc1c[nH]c2ccccc12)C(=O)N1CCc2ccccc2C1 (centres undefined) | 0.156
COCCNC(=O)c1ccc(CS(=O)(=O)c2ccc(Cl)cc2)o1 | 0.388
Oc1ccc(-c2cn3cc(C(F)(F)F)ccc3n2)cc1 | 0.221
CCN(CC)c1cc(C(F)(F)F)nc(-c2ccccn2)n1 | -0.321
Cc1ccc(S(=O)(=O)N/N=C/c2cccc3c2OCCO3)cc1 | -0.232
FC(F)(F)c1ccc(Oc2ccc3c(C(F)(F)F)cc(C(F)(F)F)nc3n2)cc1 | -0.106
O=C(CSc1nnc(Cc2ccccc2)n1-c1ccccc1)N1CCOCC1 | -0.213
CC(CN1CCOCC1)OC(=O)c1ccc(Br)cc1 (centres undefined) | -0.258
COC(=O)c1ccc(C(=O)OC)c(NC(=O)CSc2ccccn2)c1 | -0.644
Cc1nc(C)c2c(=O)cc(-c3ccccc3)[nH]c2n1 | -0.301
S=C(Nc1ccccc1)c1nc2ccccc2s1 | 2.64
Cc1nnc(SCC(=O)N2CCC(C(N)=O)CC2)s1 | -0.513
O=C(C1CCN(S(=O)(=O)N2CCOCC2)CC1)N1CCN(Cc2ccccc2)CC1 | -0.0538
COc1ccc2[nH]c(C)c(CCN3C(=O)OC(C)(C)C3(C)O)c2c1 (centres undefined) | -0.00966
Cc1nn(C)c(C)c1S(=O)(=O)N1CCC(C(=O)Nc2ccc3c(c2)OCCO3)CC1 | 0.0886
COCCn1c(SCCN2CCOCC2)nc2c1c(=O)[nH]c(=O)n2C | -0.528
Cc1[nH]nc(SCC(=O)NCc2ccc(Cl)cc2)c1[N+](=O)[O-] | -0.12
COc1ccc(Oc2ncnc3c2ncn3Cc2ccccc2)cc1 | -0.262
CCOc1cc(NC(=S)NCC(C)C)c(OCC)cc1NC(=O)c1ccco1 | -0.188
O=C(NCC1CCCO1)c1ccccc1 (centres undefined) | -0.11
O=C(O)CSCc1cnn(-c2ccccc2)c1-n1cccc1 | 0.0139

SMILES | z-score
COC(=O)C(Cc1c[nH]c2ccccc12)NC(C)=O (centres undefined) | -0.043
O=C(C[n+]1cc(-c2ccccc2)n2c1CCC2)OCc1ccccc1 | active: 5.17
N#CC(c1ccc(O)cc1)N1CCCCC1 (centres undefined) | -0.281
COc1ccc(NS(=O)(=O)c2ccc3nc(COc4ccc(C#N)cc4)[nH]c3c2)cc1 | -0.0242
COc1ccc(S(=O)(=O)O/N=C2\CCCc3ccccc32)cc1 | 0.0274
COc1ccc2c(c1)c1ncn(CCCN3CCOCC3)c(=O)c1n2C | 0.00301
Cc1ccc(N/C=C/C(=O)c2ccc(C)cc2)cc1 | 0.877
Cc1ccc(NC(=O)C2CC(=O)n3c(nc4ccccc43)N2)cc1 (centres undefined) | -0.152
Cc1cccc(-n2nc(C)cc2N)c1 | -0.0369
COc1cc(-c2nnc(SCC(=O)N(Cc3ccccc3)C(C)(C)C)o2)cc(OC)c1OC | -1.34
CCOC(=O)N1CCN(Cc2c(F)cccc2F)CC1 | -0.0243
COC(=O)c1ccccc1NC(=O)Cn1cnc2c(cnn2-c2ccccc2)c1=O | -0.383
COC(=O)c1ccc(COC(=O)c2ccc(CO)cc2)o1 | -0.263
Cc1ccc2nc3ccc(N4CCN(C)CC4)nn3c(=O)c2c1 | 0.0225
COc1ccc(NC(=O)COc2ccccc2)c(OC)c1 | -0.33
COc1cccc(/C=C/C(=C2/C(=O)N(c3ccccc3)N=C2C)c2ccc(Br)cc2)c1OC | -0.131
c1ccc2oc(NC3=NCN(CC4CCCO4)CN3)nc2c1 (centres undefined) | 0.309
Cc1c(NC(=O)C(C)OC(=O)c2cc3c4ccccc4n(C)c3s2)c(=O)n(-c2ccccc2)n1C (centres undefined) | -0.0764
CC(Sc1nnc2ccccn12)C(=O)Nc1ccc(Cl)cn1 (centres undefined) | -0.0922
Cc1ccccc1-c1nc(CS(=O)(=O)CC(=O)NCc2ccc3c(c2)OCO3)c(C)o1 | 0.146
Cc1nc2ccccc2c(=O)n1CCCn1ccnc1 | -0.0141
CCOC(=O)C1=C(C(F)(F)F)Nc2ncnn2C1c1ccc(OC)cc1OC (centres undefined) | -0.139
Cc1ccc2[nH]c(=O)c(-c3noc(-c4ccncc4)n3)cc2c1 | 0.141

SMILES | z-score
CCN1C(=O)/C(=C2\C=Cc3cc(C)ccc3N2CC)OC1=S | -0.144
O=C(Nc1nnc(C(F)(F)F)s1)c1cccnc1 | 0.616
CC(=O)c1sc(NC(=O)c2ccco2)nc1-c1ccccc1 | 0.0282
COC(=O)CSc1nnc(-c2ccc(S(=O)(=O)N3CCCC3)cc2)n1C | -0.234
O=C1c2ccccc2C(=O)N1CSc1nnnn1-c1ccccc1 | -0.207
O=C(Nc1ccccc1)c1ccc(CN2CCC(Cc3ccccc3)CC2)cc1 | 0.0784
Cc1nnc(NC(=O)CSc2nnc(C)n2Cc2ccccc2)s1 | -0.0456
CCCOc1ccc(N2C(=O)CC(N3CCN(S(=O)(=O)c4ccccc4)CC3)C2=O)cc1 (centres undefined) | -0.232
CCn1c(C)[n+](CC(O)COCC2CC=CCC2)c2ccccc21 (centres undefined) | -0.33
COC(=O)C1=C(C)N=C2SCCC(=O)N2C1c1ccc(C(=O)OC)cc1 (centres undefined) | 0.676
Cc1c(Cl)cccc1NC(=O)CNc1cccc(C(F)(F)F)c1 | -0.119
O=C(COC(=O)CCCNC(=O)c1ccc(Cl)cc1)NCc1ccccc1Cl | -0.0748
CCSc1nnc(NC(=O)c2csc3c2CCC(C)C3)s1 (centres undefined) | -0.0907
Cn1cccc1C(=O)NC(=O)COC(=O)C12CC3CC(CC(O)(C3)C1)C2 | -0.235
O=S(=O)(NC1CCCCC1)c1ccc(Cl)nc1 | -0.0261
O=c1cc(NS(=O)(=O)c2ccccc2)nc(SCc2c(Cl)cccc2Cl)[nH]1 | 0.879
COC(=O)C1=C(C(=O)OC)C2(OC1c1ccc(Br)cc1)C(=O)c1ccccc1C2=O (centres undefined) | 0.00915
CC(C)C(NC(=O)c1cccs1)C(=O)NC1=NCCS1 (centres undefined) | 0.0706
O=C(CCS(=O)(=O)c1cccc2nsnc12)NCc1ccccc1Cl | 0.429
COc1ccc(/C=N/NC(=O)CC(=O)NCc2cccnc2)c(OC)c1 | -0.0683
CC1(C)CC(NC(=O)CCc2ccccc2)CC(C)(C)N1 | -0.159
COc1ccc(CN2CCCC(C(=O)N3CCCC3)C2)cc1 (centres undefined) | -0.0501
Cc1ccc(CNC(=O)CNS(=O)(=O)c2cccc3nsnc23)cc1 | 1.61

SMILES | z-score
Cc1ccc(C(=O)Nc2ccccc2-c2ccccc2)cc1S(=O)(=O)Nc1cccc(C)c1C | -0.221
O=S(=O)(CCSc1nc2ccccc2s1)c1nc2ccccc2s1 | 0.185
CC(=O)Nc1nc2ccc(-c3nc4ccccc4o3)cc2s1 | 2.69
Cc1ccc(NC(=O)c2cccc(N3C(=O)C4C5CCC(C5)C4C3=O)c2)c(C)c1 (centres undefined) | -0.392
CCOc1ccc(C(=O)COC(=O)CC)cc1 | -0.159
COC(=O)N/N=C(\C)c1ccc(OC(F)F)cc1OC(F)F | -0.297
CC(C)CCOC(=O)C1C2C=CC3(CN(Cc4cccs4)C(=O)C13)O2 (centres undefined) | 0.285
CSc1nc(C)c2c(n1)N(c1ccc(C(C)C)cc1)CC2 | 0.43
Cc1ccccc1-n1c(C)cc(/C=C2\NC(=O)NC2=O)c1C | 0.0101
Cn1c(SCC(=O)Nc2ccc3cn[nH]c3c2)nnc1-c1cccs1 | -0.291
CCC(=O)n1nc(NCc2ccccc2OC)nc1NCc1ccccc1OC | -0.224
COc1nc(N=C(N)N)nc2ccc(C)cc12 | -0.127
Cc1nc2ncnn2c(C)c1CCC(=O)NCCc1ccccc1 | -0.181
CC(=O)OC1c2ccccc2C(=O)N1Cc1ccccc1 (centres undefined) | -0.229
CNC(=O)CSc1nnnn1CCCOC | 0.0742
CCN(CC(=O)N1CCN(c2ccccc2)CC1)S(=O)(=O)c1ccc(C)cc1 | -0.0364
CS(=O)(=O)c1cccc(C(=O)NC(c2ccccc2)c2ccccc2)c1 | 0.145
CSCCC(NS(=O)(=O)c1cccs1)C(=O)NCc1cccs1 (centres undefined) | 0.0942
CCc1nnc(NC(=O)CSc2nc(C)c3c(c2C#N)CCCC3)s1 | -1.22
COc1ccc(C(=O)NCCSCc2ccc(C)cc2)cc1 | -0.627
COc1ccc(N2CCN(C(=O)CSc3nnc4nc(C)cc(C)n34)CC2)cc1 | 0.0305
COc1cccc(C(=O)NCC(c2cccnc2)N2CCN(c3ccccc3OC)CC2)c1 (centres undefined) | -1.75
CCOC(=O)n1c(=O)oc2cc(S(=O)(=O)N3CCCCC3)ccc21 | -0.387

SMILES | z-score
Cc1ccc(S(=O)(=O)Nc2ccc(N3CCOCC3)cc2)cc1 | 0.255
NC(=O)C1CCN(c2oc(-c3ccccc3F)nc2S(=O)(=O)c2ccc(Cl)cc2)CC1 | -0.139
O=CNC(Cc1ccccc1)C(=O)O (centres undefined) | 1.94
Cc1noc(C)c1S(=O)(=O)N1CCN(C(c2ccccc2)c2ccc(Cl)cc2)CC1 (centres undefined) | 0.28
Nc1nc(OCC(F)(F)F)cc(Oc2ccccc2F)n1 | -0.33
COc1ccc(-c2nnn(CC(=O)NCc3cccs3)n2)cc1OC | 0.25
Cc1ccccc1CSCC(=O)NC1CCCC1 | -0.358
CN1C(=O)C2(c3ccccc31)N(C)CC(c1ccccn1)C21SC(=S)N(Cc2ccco2)C1=O (centres undefined) | 0.441
CS(=O)(=O)N1CCC(C(=O)NCc2ccco2)CC1 | 0.432
N#CCCn1ncc2ccccc21 | 0.255
CSc1nc(NCC(C)C)nc(N2CCOCC2)n1 | -0.452
O=C1Nc2ccccc2Nc2ncccc21 | -0.823
CCN(CC)c1ccc(C=C2C(=O)OC3(CCCC3)OC2=O)cc1 | -0.152
COc1ccc(NC(C#N)c2ccc(OC)cc2)cc1 (centres undefined) | -0.113
O=C1Oc2ccccc2C2(O)C3CCCCCC3C12 (centres undefined) | -0.124
CCOc1cc(C=O)ccc1OS(=O)(=O)c1ccc(NC(C)=O)cc1 | -0.721
CCOc1ccc(-n2c(N)c(-c3nc4ccccc4[nH]3)sc2=S)cc1 | 0.509
Cc1cc(Br)c2nc3c(c(C(=O)O)c2c1)CCCCC3 | -0.438
O=C(c1ccco1)N1CCN(C2CC(=O)N(c3ccc4c(c3)OCO4)C2=O)CC1 (centres undefined) | 0.168
O=S(=O)(c1ccc(F)cc1)c1nc(-c2ccco2)oc1Nc1ccccc1 | 0.572
CCN(CC)S(=O)(=O)c1cccc(C(=O)Nc2cc3oc4ccccc4c3cc2OC)c1 | -0.12
CCNc1nc(NC(C)C)nc(NS(=O)(=O)c2ccc(Cl)cc2)n1 | 0.57

Reference: PubChem BioAssay AID488969 (Vanderbilt High Throughput Screening Facility, 2010)
